{
  "source": "paper PMC12820563",
  "about": "“FoxP3 forms a head-to-head dimer in vivo and stabilizes its multimerization on adjacent microsatellites”",
  "note": "Some of the results follow.",
  "data": [
    {"target": "T1, MBP-FoxP1dN (Mus musculus, UniProt P58462 326-579)", "T1 sequence": "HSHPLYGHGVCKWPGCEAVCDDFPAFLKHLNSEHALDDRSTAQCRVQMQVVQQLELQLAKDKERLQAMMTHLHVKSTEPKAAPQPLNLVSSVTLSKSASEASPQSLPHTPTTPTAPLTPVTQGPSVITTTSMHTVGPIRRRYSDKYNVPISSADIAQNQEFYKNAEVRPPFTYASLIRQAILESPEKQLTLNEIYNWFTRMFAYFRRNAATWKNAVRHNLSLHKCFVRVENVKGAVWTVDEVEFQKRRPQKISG", "test": "PD-seq (MBP pull-down with sequencing); 20 mM Tris-HCl pH 7.5, 100 mM NaCl, 1.5 mM MgCl2, 0.4 uM protein, 0.1 uM dsDNA library, 30 min, room temperature, amylose pull-down; high values mean tight binding", "settings": "protein: recombinant; tags: His6-MBP; chain copies: 2; dsDNA, one strand shown", "outline": "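A degenerate double-stranded DNA library, filled in with Klenow, was added at 0.1 µM to 0.4 µM His6-MBP-tagged mouse FoxP3 or FoxP1 fragment lacking the N-terminus, expressed in E. coli. Incubation lasted 30 min at room temperature in Tris pH 7.5 buffer with NaCl and MgCl2, after which complexes were collected on amylose resin, washed three times, digested with proteinase K to free the DNA, barcoded by PCR and sequenced by Illumina. Binding is the pooled-replicate reads-per-million enrichment of pull-down over input.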", "values": [
      {"sequence": "GATGATTGTTCTCCCAGCTGATGAATTTACGGGATCGAGTAAACAAATTTTCCTAATCTTTCTGTTCAAGCGCCATCTAC", "binding signal": "1.04 RPM ratio (pull-down/input)"},
      {"sequence": "GATGATTGTTCTCCCAGCTGATGAATTCCGACTTTCGAGTAAACAAATTTTCCTAATCTTTCTGTTCAAGCGCCATCTAC", "binding signal": "0.821 RPM ratio (pull-down/input)"},
      {"sequence": "GATGATTGTTCTCCCAGCTGATGAATTCTTAGAGTCGAGTAAACAAATTTTCCTAATCTTTCTGTTCAAGCGCCATCTAC", "binding signal": "0.77 RPM ratio (pull-down/input)"},
      {"sequence": "GATGATTGTTCTCCCAGCTGATGAATTGTCGAATTCGAGTAAACAAATTTTCCTAATCTTTCTGTTCAAGCGCCATCTAC", "binding signal": "1.03 RPM ratio (pull-down/input)"},
      {"sequence": "GATGATTGTTCTCCCAGCTGATGAATTGCATGATTCGAGTAAACAAATTTTCCTAATCTTTCTGTTCAAGCGCCATCTAC", "binding signal": "1.21 RPM ratio (pull-down/input)"},
      {"sequence": "GATGATTGTTCTCCCAGCTGATGAATTAAATGAGTCGAGTAAACAAATTTTCCTAATCTTTCTGTTCAAGCGCCATCTAC", "binding signal": "1.01 RPM ratio (pull-down/input)"},
      {"sequence": "GATGATTGTTCTCCCAGCTGATGAATTCGAACTGTCGAGTAAACAAATTTTCCTAATCTTTCTGTTCAAGCGCCATCTAC", "binding signal": "0.846 RPM ratio (pull-down/input)"},
      {"sequence": "GATGATTGTTCTCCCAGCTGATGAATTCAACGGTTCGAGTAAACAAATTTTCCTAATCTTTCTGTTCAAGCGCCATCTAC", "binding signal": "0.859 RPM ratio (pull-down/input)"},
      {"sequence": "GATGATTGTTCTCCCAGCTGATGAATTAGTCTTCTCGAGTAAACAAATTTTCCTAATCTTTCTGTTCAAGCGCCATCTAC", "binding signal": "0.879 RPM ratio (pull-down/input)"},
      {"sequence": "GATGATTGTTCTCCCAGCTGATGAATTTGCAGTGTCGAGTAAACAAATTTTCCTAATCTTTCTGTTCAAGCGCCATCTAC", "binding signal": "0.987 RPM ratio (pull-down/input)"},
      {"sequence": "GATGATTGTTCTCCCAGCTGATGAATTATACGAATCGAGTAAACAAATTTTCCTAATCTTTCTGTTCAAGCGCCATCTAC", "binding signal": "1.06 RPM ratio (pull-down/input)"},
      {"sequence": "GATGATTGTTCTCCCAGCTGATGAATTTCGATCTTCGAGTAAACAAATTTTCCTAATCTTTCTGTTCAAGCGCCATCTAC", "binding signal": "0.828 RPM ratio (pull-down/input)"},
      {"sequence": "GATGATTGTTCTCCCAGCTGATGAATTACGCACTTCGAGTAAACAAATTTTCCTAATCTTTCTGTTCAAGCGCCATCTAC", "binding signal": "1.12 RPM ratio (pull-down/input)"},
      {"sequence": "GATGATTGTTCTCCCAGCTGATGAATTCCCCACATCGAGTAAACAAATTTTCCTAATCTTTCTGTTCAAGCGCCATCTAC", "binding signal": "0.96 RPM ratio (pull-down/input)"},
      {"sequence": "GATGATTGTTCTCCCAGCTGATGAATTGGTTGTGTCGAGTAAACAAATTTTCCTAATCTTTCTGTTCAAGCGCCATCTAC", "binding signal": "1.2 RPM ratio (pull-down/input)"},
      {"sequence": "GATGATTGTTCTCCCAGCTGATGAATTGCGTTCGTCGAGTAAACAAATTTTCCTAATCTTTCTGTTCAAGCGCCATCTAC", "binding signal": "1.05 RPM ratio (pull-down/input)"},
      {"sequence": "GATGATTGTTCTCCCAGCTGATGAATTGCAGACATCGAGTAAACAAATTTTCCTAATCTTTCTGTTCAAGCGCCATCTAC", "binding signal": "1.21 RPM ratio (pull-down/input)"},
      {"sequence": "GATGATTGTTCTCCCAGCTGATGAATTCGTCGAGTCGAGTAAACAAATTTTCCTAATCTTTCTGTTCAAGCGCCATCTAC", "binding signal": "0.793 RPM ratio (pull-down/input)"},
      {"sequence": "GATGATTGTTCTCCCAGCTGATGAATTGCAGGATTCGAGTAAACAAATTTTCCTAATCTTTCTGTTCAAGCGCCATCTAC", "binding signal": "1.1 RPM ratio (pull-down/input)"},
      {"sequence": "GATGATTGTTCTCCCAGCTGATGAATTAGTTCCTTCGAGTAAACAAATTTTCCTAATCTTTCTGTTCAAGCGCCATCTAC", "binding signal": "0.948 RPM ratio (pull-down/input)"},
      {"sequence": "GATGATTGTTCTCCCAGCTGATGAATTTGCGTCGTCGAGTAAACAAATTTTCCTAATCTTTCTGTTCAAGCGCCATCTAC", "binding signal": "1.08 RPM ratio (pull-down/input)"},
      {"sequence": "GATGATTGTTCTCCCAGCTGATGAATTATAACGGTCGAGTAAACAAATTTTCCTAATCTTTCTGTTCAAGCGCCATCTAC", "binding signal": "1.02 RPM ratio (pull-down/input)"},
      {"sequence": "GATGATTGTTCTCCCAGCTGATGAATTAGGCAGTTCGAGTAAACAAATTTTCCTAATCTTTCTGTTCAAGCGCCATCTAC", "binding signal": "0.819 RPM ratio (pull-down/input)"},
      {"sequence": "GATGATTGTTCTCCCAGCTGATGAATTAATTGAGTCGAGTAAACAAATTTTCCTAATCTTTCTGTTCAAGCGCCATCTAC", "binding signal": "0.932 RPM ratio (pull-down/input)"},
      {"sequence": "GATGATTGTTCTCCCAGCTGATGAATTCGAGAAATCGAGTAAACAAATTTTCCTAATCTTTCTGTTCAAGCGCCATCTAC", "binding signal": "0.923 RPM ratio (pull-down/input)"},
      {"sequence": "GATGATTGTTCTCCCAGCTGATGAATTTGCAAATTCGAGTAAACAAATTTTCCTAATCTTTCTGTTCAAGCGCCATCTAC", "binding signal": "1.07 RPM ratio (pull-down/input)"},
      {"sequence": "GATGATTGTTCTCCCAGCTGATGAATTTATGGGTTCGAGTAAACAAATTTTCCTAATCTTTCTGTTCAAGCGCCATCTAC", "binding signal": "1.06 RPM ratio (pull-down/input)"},
      {"sequence": "GATGATTGTTCTCCCAGCTGATGAATTGCAGCAGTCGAGTAAACAAATTTTCCTAATCTTTCTGTTCAAGCGCCATCTAC", "binding signal": "1.04 RPM ratio (pull-down/input)"},
      {"sequence": "GATGATTGTTCTCCCAGCTGATGAATTGACGCCATCGAGTAAACAAATTTTCCTAATCTTTCTGTTCAAGCGCCATCTAC", "binding signal": "1.24 RPM ratio (pull-down/input)"},
      {"sequence": "GATGATTGTTCTCCCAGCTGATGAATTGAAAGTGTCGAGTAAACAAATTTTCCTAATCTTTCTGTTCAAGCGCCATCTAC", "binding signal": "0.883 RPM ratio (pull-down/input)"},
      {"sequence": "GATGATTGTTCTCCCAGCTGATGAATTTCCTATATCGAGTAAACAAATTTTCCTAATCTTTCTGTTCAAGCGCCATCTAC", "binding signal": "0.903 RPM ratio (pull-down/input)"}
    ]}
  ]
}
